# Test results published in PubChem BioAssay AID588453 (National Center for Advancing Translational Sciences (NCATS), 2011).
# The whole screen tested about 390,000 compounds, of which about 4,000 (1%) were called active. This list was built around the results that the source calls inconclusive (neither active nor inactive); the mix of calls is not that of the screen. Calls follow the shape of the dose curve; as a rule, active = well fitted inhibition curve with a large enough effect; inconclusive = small, poorly fitted or top-dose-only effect; inactive = no such curve, though single readings can be large or run the other way. Potencies beside an inconclusive call are fits to weak or partial responses and may not hold up.
# Biological target: Thioredoxin reductase 1, cytoplasmic (Rattus norvegicus) (UniProt O89049)
# Test: qHTS Assay for Inhibitors of Mammalian Selenoprotein Thioredoxin Reductase 1 (TrxR1): qHTS; also: nearly all actives have a fitted effect of over 65% in size
# Conditions: recombinant rTrxR1, NADPH fluorescence consumption, selenite substrate; series mostly up to 114 µM; activity change, negative = inhibition: at the top concentration
# Outline: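 Rat TrxR1 (90 nM in the dispensed reagent) was pre-reduced with 400 uM NADPH for 5 min at room temperature, then incubated with compound for 15 min. After 400 uM selenite was added, NADPH fluorescence (Ex 340/Em 450 nm) was followed for 8 min.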
# % is scaled to controls: 0 for no effect and ±100 for the full control effect; potency is read from the fitted curve at half-maximal effect; tags tell the direction and shape of the fitted curve.
# UniProt O89049, sequence (O89049 whole entry, looked up): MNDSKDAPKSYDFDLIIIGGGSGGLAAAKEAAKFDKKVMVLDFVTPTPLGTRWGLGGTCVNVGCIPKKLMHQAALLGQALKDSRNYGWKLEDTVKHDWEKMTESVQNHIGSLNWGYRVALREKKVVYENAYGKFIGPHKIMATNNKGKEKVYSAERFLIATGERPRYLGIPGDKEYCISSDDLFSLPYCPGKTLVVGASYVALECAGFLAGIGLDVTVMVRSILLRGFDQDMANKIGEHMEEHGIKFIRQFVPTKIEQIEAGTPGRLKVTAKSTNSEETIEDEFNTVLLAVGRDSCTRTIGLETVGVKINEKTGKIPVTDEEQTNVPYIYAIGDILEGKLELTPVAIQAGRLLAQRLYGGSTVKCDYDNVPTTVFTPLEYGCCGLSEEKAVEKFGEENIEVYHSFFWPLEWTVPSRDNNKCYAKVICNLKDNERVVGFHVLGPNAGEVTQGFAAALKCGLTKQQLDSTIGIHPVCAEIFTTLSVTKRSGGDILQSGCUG
Structure (SMILES),Potency,"activity change, negative = inhibition"
CCCCSc1nnc([C@@H](NC(=O)OC(C)(C)C)C(C)C)o1,"inconclusive: 70.8 µM [inhibitor, single point]",–
S=c1[nH]nc(-c2cnccn2)n1-c1ccccc1,"inconclusive: 17.8 µM [inhibitor, full curve, poor fit]",–
Oc1ccc2ccccc2c1CN1CCN(c2ccccc2)CC1,"inconclusive: 79.4 µM [inhibitor, single point]",–
COc1cccc(/C(O)=C/C(=O)C(=O)Nc2ccc(S(=O)(=O)NC(C)=O)cc2)c1,active: 22.4 µM,–
Cc1cc(C)c(S(=O)(=O)Nc2ccc3oc4c(c3c2)CCCC4)cc1C,–,inactive: 25.4%
O/N=C1\CCC\C1=C/c1ccco1,"inconclusive: 14.1 µM [inhibitor, full curve]",–
C/C=C\C=C\C(=O)Nc1cccc(C2=NOC3(C2)C[C@H](C(N)=O)N(C(=O)c2ccccc2C(=O)c2ccccc2)C3)c1 (stereo partly specified),"inconclusive: 15.8 µM [inhibitor, partial curve, poor fit]",–
O=c1c2ccccc2nnn1CSc1nnc(-c2cccnc2)n1-c1ccccc1F,"inconclusive: 31.6 µM [inhibitor, partial curve, poor fit]",–
CCOP(=O)(OCC)C(NC(=O)c1cc([N+](=O)[O-])cc([N+](=O)[O-])c1)C(F)(F)F (stereo unspecified),"inconclusive: 20 µM [inhibitor, full curve]",–
CN(C)c1ccc(NC(=O)CCCc2ccccc2)cc1,"inconclusive: 89.1 µM [inhibitor, partial curve, poor fit]",–
CCC(O)(CC)C(=O)NN(C(=O)CCl)c1ccccc1,"inconclusive: 56.2 µM [inhibitor, partial curve, poor fit]",–
Cc1ccc(OCC(=O)c2cc(C)n(-c3cc(C)on3)c2C)c([N+](=O)[O-])n1,"inconclusive: 79.4 µM [inhibitor, partial curve, poor fit]",–
CC[C@H](C)/C=C(C)/C=C/C1=CC2=CC(=O)[C@]3(C)OC(=O)[C@@H](C(C)=O)[C@@H]3C2=CO1,"inconclusive: 70.8 µM [inhibitor, single point]",–
COc1ccccc1-c1cc(C(F)(F)F)nc(S(=O)(=O)CCCC(=O)Nc2cccnc2Cl)n1,"inconclusive: 3.55 µM [inhibitor, single point]",–
O=C(/C=C/c1ccco1)Nc1ccc(S(=O)(=O)N2CCOCC2)cc1,"inconclusive: 17.8 µM [inhibitor, full curve]",–
O=C(Cc1cccs1)NCCSc1c(-c2ccc(Cl)cc2)[nH]c2ccccc12,–,inactive: 66.8% [at 57.1 µM]
CCCCC[n+]1cccc2c3ccccc3ccc21,"inconclusive: 89.1 µM [inhibitor, single point]",–
CCN(CC)CCCNC(=O)c1c(C)oc2ncnc(N3CCOCC3)c12,–,inactive: 6.81%
Cc1sc(NC(=O)C2CSC3(C)CCC(=O)N23)nc1-c1ccc(F)cc1 (stereo unspecified),"inconclusive: 89.1 µM [inhibitor, single point]",–
CCCCNC(=S)NC(=O)c1ccccc1Br,"inconclusive: 15.8 µM [inhibitor, partial curve]",–
CC1=NNC(=O)/C1=C\c1cn(-c2ccccc2)nc1-c1ccccc1,"inconclusive: 22.4 µM [inhibitor, single point]",–
O=C(O)C12CC3CC(C1)CC(n1ncc(NCc4ccco4)c(Cl)c1=O)(C3)C2,"inconclusive: 50.1 µM [inhibitor, partial curve, poor fit]",–

Structure (SMILES),Potency,"activity change, negative = inhibition"
CC(=O)Nc1ccc(NC(=S)NC(=O)/C=C/c2ccco2)cc1,active: 39.8 µM,–
CCc1ccc(NC(=O)N2CCN(Cc3cc(=O)n4nc(-c5ccccc5OC)sc4n3)CC2)cc1,–,inactive: 14.8% [at 57.1 µM]
CCOc1ccc(OCCC(=O)Nc2ccc3c(c2)OCO3)cc1,"inconclusive: 39.8 µM [inhibitor, single point]",–
CCN1CCN(C(c2cccc(F)c2)c2c(O)cc(C)n(CCOC)c2=O)CC1 (stereo unspecified),active: 11.2 µM,–
CCOC(=O)c1c(N)n(-c2ccccc2CC)c2nc3ccccc3nc12,"inconclusive: 39.8 µM [inhibitor, single point]",–
Cc1ccc(NC(=S)Nc2cccc3cnccc23)cc1,"inconclusive: 15.8 µM [inhibitor, single point]",–
O=C(c1ccc(F)cc1)C(CN1CCOCC1)c1ccccc1 (stereo unspecified),active: 56.2 µM,–
O=C1CS(=O)(=O)c2ccccc2N1,"inconclusive: 8.91 µM [inhibitor, partial curve, poor fit]",–
CCN/N=C(\Cc1nc2ccccc2[nH]1)c1ccccc1,–,inactive: -24%
COc1ccc(CNc2cc(NCCCO)c([N+](=O)[O-])c3nonc23)cc1,"inconclusive: 56.2 µM [inhibitor, partial curve, poor fit]",–
CC(C)CC(=O)Nc1ccc(-c2cn3cccnc3n2)cc1,"inconclusive: 31.6 µM [inhibitor, single point]",–
Cc1ccc(-c2cccc(NC(=O)C3C(C(=O)O)[C@@H]4C=C[C@H]3C4)c2)o1 (stereo partly specified),"inconclusive: 50.1 µM [inhibitor, partial curve]",–
O=C(CN1C(=O)C2CC=CCC2C1=O)OCC(=O)c1ccc(Cl)c([N+](=O)[O-])c1 (stereo unspecified),"inconclusive: 39.8 µM [inhibitor, partial curve, poor fit]",–
COCC1CCCCN1C(=O)C1CCN(c2nc(-c3ccccc3)nc3c2CCC3)CC1 (stereo unspecified),–,inactive: -18%
Cc1ccccc1C(=O)NC(=S)Nc1ccccc1C(=O)O,–,inactive: 1.52% [at 57.1 µM]
Oc1ccc(Cl)cc1C1C=C(c2ccc3c(c2)OCO3)NC(c2ccc(Br)cc2)N1 (stereo unspecified),"inconclusive: 25.1 µM [inhibitor, full curve]",–
COC(=O)c1c(C)[nH]c(C(=O)C(C)OC(=O)c2cnc(C)cn2)c1C (stereo unspecified),"inconclusive: 89.1 µM [inhibitor, single point]",–
Brc1ccc(C2=CC(c3ccco3)n3ncnc3N2)cc1 (stereo unspecified),active: 39.8 µM,–
CCC(=O)Nc1cccc(-c2nnc(SCC(=O)c3ccccc3)n2C)c1,"inconclusive: 31.6 µM [inhibitor, partial curve, poor fit]",–
COc1cccc(CCN2CCC(CNS(=O)(=O)c3cc(-c4cc(C)no4)ccc3C)CC2)c1,–,inactive: 27.7%
COc1ccc(C(=O)Nc2cccc(-c3cn4ccsc4n3)c2)cc1OC,–,inactive: 4.11% [at 57.1 µM]
Cc1occc1C(=O)N1CCCC(N2CCN(c3ccccc3F)CC2)C1 (stereo unspecified),"inconclusive: 70.8 µM [inhibitor, partial curve]",–

Structure (SMILES),Potency,"activity change, negative = inhibition"
COC(=O)CCC(=O)OC1(C)C(=O)C2=CN(c3ccccc3)C(c3ccc(OC)cc3)=CC2=C(Br)C1=O (stereo unspecified),"inconclusive: 12.6 µM [inhibitor, partial curve]",–
CCc1ccc(NC(=O)CCn2c(-c3ccc(OC)cc3)cc(C(C)=O)c2C)cc1,–,inactive: 11.9% [at 57.1 µM]
COc1ccc(C2C=C(c3ccc(F)cc3)Nc3nc(-c4ccc(Cl)cc4)nn32)cc1 (stereo unspecified),"inconclusive: 89.1 µM [inhibitor, single point]",–
COc1cc(C)cc(C(=O)C=Cc2ccccc2)c1O,–,inactive: -10.1% [at 2.29 µM]
CCCOc1ccc(/C=N/O)cc1,"inconclusive: 10 µM [inhibitor, partial curve]",–
CC1CCN(c2nc3c(S(=O)(=O)c4ccccc4)nnn3c3ccc(Cl)cc23)CC1,–,inactive: 4.59%
Cc1ccc2[nH]c3c(c2c1)CCCC3NC(=O)CCl (stereo unspecified),"inconclusive: 17.8 µM [inhibitor, full curve]",–
COc1cc2[nH]c(=O)n(C3CCCCC3)c(=O)c2cc1OC,"inconclusive: 70.8 µM [inhibitor, single point]",–
COc1cccc(Cn2cnc3c(cnn3C(C)(C)C)c2=O)c1,–,inactive: 18.1%
CN(C(=S)Nc1ccc(SC(F)F)cc1)c1ccc(O)cc1,"inconclusive: 35.5 µM [inhibitor, single point]",–
CC1(C)CC(=O)C2=C(C1)OC(N)=C(C#N)C2c1cc2c(cc1[N+](=O)[O-])OCO2 (stereo unspecified),"inconclusive: 89.1 µM [inhibitor, single point]",–
O=C(COC(=O)c1ccc([N+](=O)[O-])o1)Nc1ccc(F)cc1,active: 25.1 µM,–
Cc1ccc(CN2COc3ccc4c(C)cc(=O)oc4c3C2)cc1,"inconclusive: 89.1 µM [inhibitor, single point]",–
Cc1c(NC(=O)Oc2ccccc2)sc(=S)n1C,"inconclusive: 44.7 µM [inhibitor, single point]",–
COc1ccc(-c2nc3c(c(SCC(=O)Nc4cccc(O)c4)n2)Cc2c(CO)cnc(C)c2O3)cc1,"inconclusive: 39.8 µM [inhibitor, single point]",–
O=C(COc1ccccc1F)Nc1ccccc1C(=O)OCc1cc(=O)n2nc(C3CC3)sc2n1,–,inactive: 9.28% [at 57.1 µM]
Cc1ccc(C(=O)N(Cc2ccco2)Cc2sccc2C)cc1,"inconclusive: 89.1 µM [inhibitor, single point]",–
COc1ccccc1NC(=O)c1cc2cc(Br)ccc2cc1O,–,inactive: -5.63%
Cc1ccc(C(=O)NC(=C(Cl)Cl)S(=O)(=O)c2ccc(C)cc2)cc1,"inconclusive: 50.1 µM [inhibitor, single point]",–
O=C(Nc1c2c(nn1-c1ccc(F)cc1)CS(=O)C2)c1ccc(Br)o1 (stereo unspecified),"inconclusive: 89.1 µM [inhibitor, partial curve, poor fit]",–
CSC1SCC2C(=O)N(C)C(C(C)C)C(=O)OCC(NC(=O)c3cnc4ccccc4n3)C(=O)NC(C)C(=O)N(C)C1C(=O)N(C)C(C(C)C)C(=O)OCC(NC(=O)c1cnc3ccccc3n1)C(=O)NC(C)C(=O)N2C (stereo unspecified),"inconclusive: 89.1 µM [inhibitor, single point]",–
O=C(CSc1ccsc1[N+](=O)[O-])N1CCN(c2ccc(Cl)cc2)CC1,"inconclusive: 79.4 µM [inhibitor, single point]",–
